# Source: PubChem BioAssay AID1466 (National Center for Advancing Translational Sciences (NCATS), 2008)
# In all, about 200,000 compounds went through this assay and about 10 (0.005%) were called active. Inconclusive means that the source gave no clear call. Such entries were picked first, then a sample of the others. The call rests on the fitted dose curve; in most records, active means well fitted inhibition curve with a large enough effect; inconclusive means small, poorly fitted or top-dose-only effect, or effect the other way, or another doubt; inactive means no such curve, though single readings can be large or run the other way. Potencies of inconclusive entries are left out as doubtful fits.
# Target: Lysosomal alpha-glucosidase (Homo sapiens) (UniProt P10253)
# Assay: qHTS Assay for Inhibitors of Human alpha-Glucosidase as a Potential Chaperone Treatment of Pompe Disease;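 on activity change, negative = inhibition: plate controls were uninhibited enzyme wells for no effect and no-enzyme background for full effect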
# Details: purified human GAA, 4-MU-alpha-glucoside fluorescence; activity change, negative = inhibition: at 76.9 µM (top of the series) unless noted
# Procedure, shortened: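 Human enzyme at 4 nM with 400 uM 4-methylumbelliferyl-alpha-D-pyranoside, citrate/phosphate buffer pH 5.0, 0.005% Tween-20, 20 min at room temperature. Compounds up to 77 uM. 4-MU fluorescence (Ex 365/Em 440) read after NaOH/glycine stop; AC50 from Hill fit.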
# Potency means the concentration at half of the fitted maximal effect; tags describe the fitted curve by direction and shape.
Compound,"activity change, negative = inhibition",Potency
CCN(CCn1cccn1)C(=O)CCc1nnc(Cc2c[nH]c3ccccc23)o1,inconclusive: -15.6% [inhibitor],
COCCCn1cnc2oc3nc4ccccc4nc3c2c1=O,,"inconclusive [activator, partial curve]"
CC(C)c1nc(CN2CCCCC2)cc(=O)[nH]1,inconclusive: 15.9% [activator],
COc1ccc(-c2nnc(SCC(=O)NC(=O)NCc3ccccc3)o2)cc1,,"inconclusive [inhibitor, single point]"
COc1cccc(CC(NC(C)=O)C(=O)NC2CCN(c3c4c(nc5ncnn35)CCC4)CC2)c1OC (stereo not drawn),inconclusive: 16% [activator],
CCOc1nc(NCCO)nc(Nc2ccccc2F)n1,inconclusive: 16.5% [activator],
Cc1cccnc1NC(=O)Cn1nc(-c2ccccc2)oc1=S,,"inconclusive [inhibitor, single point]"
CC(C)C1N=C2c3ccccc3N=C(SCC(=O)NCCc3ccc(S(N)(=O)=O)cc3)N2C1=O (stereo not drawn),,"inconclusive [activator, single point]"
COC(=O)c1ccccc1NC(=O)Nc1cc(C)ccn1,inconclusive: 22.4% [activator],
CN1CCN(C(c2cc3cc4c(cc3[nH]c2=O)OCCO4)c2nnnn2C2CCCC2)CC1 (stereo not drawn),,"inconclusive [activator, partial curve]"
Cc1cnc(C(=O)OCC(=O)NCCc2ccccc2)cn1,,"inconclusive [inhibitor, single point]"
CCC(=O)c1ccc(/C=C/c2nc3ccccc3n2C)o1,,"inconclusive [activator, partial curve]"
CCN(CC(=O)Nc1ccc2c(c1)OCCO2)CC(=O)Nc1ccc2c(c1)OCO2,,"inconclusive [inhibitor, single point]"
O=C(N/C(=C\c1ccc(Br)cc1)C(=O)N1CCCC1)c1ccccc1F,,"inconclusive [inhibitor, single point]"
Cc1cc(C)nc(NC(=O)/C=C/c2ccc3c(c2)OCO3)c1,inconclusive: 15.2% [activator],
CC(=O)c1ccc(NC(=O)/C(Cl)=C/c2ccccc2)cc1,,"inconclusive [activator, full curve, poor fit]"
O=C1C2C3C=CC(C3)C2C(=O)N1CCCCCCN1C(=O)C2C3C=CC(C3)C2C1=O (stereo not drawn),inconclusive: 15.4% [activator],
CC(=O)Nc1ccc(N2CCN(C(=O)c3cccs3)CC2)cc1,,inactive
CCc1nnc(NS(=O)(=O)c2ccc(NC(=O)/C=C/c3ccccc3Cl)cc2)s1,,"inconclusive [inhibitor, single point]"
Cc1ccc(-c2nnc(CSc3nnc4c5c(C)c(C)sc5nc(C(C)C)n34)o2)cc1,inconclusive: -17% [inhibitor],
O=C(CN(Cc1ccccc1)S(=O)(=O)c1ccc(F)cc1)NCCC1=CCCCC1,,"inconclusive [inhibitor, single point]"
CCCCN(CCCC)S(=O)(=O)c1ccc2oc(C(=O)N3CCOCC3)c(C)c2c1,,"inconclusive [inhibitor, single point]"

Compound,"activity change, negative = inhibition",Potency
Cc1oc2ccc(OS(C)(=O)=O)cc2c1C(=O)OC(C)C,inconclusive: -19% [inhibitor],
CCOC(=O)c1c(C)[nH]c(C)c1C(=O)COC(=O)/C=C/c1ccc(OC(F)F)cc1,,"inconclusive [inhibitor, single point]"
COC(=O)c1ccc(Cl)c(NC(=O)CN(c2ccc3c(c2)OCO3)S(C)(=O)=O)c1,,"inconclusive [inhibitor, partial curve]"
CCC(=O)n1nc(-c2ccccc2)nc1N,,"inconclusive [inhibitor, partial curve, poor fit]"
COc1cc2c(cc1OC)CN(C(=O)c1ccc(S(=O)(=O)N3CCCCCC3)cc1)CC2,inconclusive: -16.1% [inhibitor],
COc1ccc(CCN(C)CCC(=O)Nc2cc(C)ccc2C)cc1OC,,"inconclusive [activator, partial curve]"
Nn1c(SCc2csc(-c3ccccc3)n2)nnc1-c1cccs1,,"inconclusive [inhibitor, partial curve, poor fit]"
O=C(CSc1nc(O)cc(=O)n1-c1ccccc1)NCc1ccccc1,,"inconclusive [inhibitor, single point]"
CCOC(=O)c1nn(-c2ccc(F)cc2)c(=O)c2c(N)scc12,inconclusive: 16.3% [activator],
O=C(O)c1cc(/C=N\O)ccc1OCc1ccccc1,,inactive
COc1cc(C(=O)Nc2cccc(-c3cn4cccnc4n3)c2)cc(OC)c1OC,,"inconclusive [activator, partial curve]"
CC(C)c1cc(C(=O)O)n(-c2ccccc2)n1,,"inconclusive [inhibitor, partial curve, poor fit]"
Cc1ccc(-n2nnnc2SCC(=O)Nc2cccnc2Cl)cc1,inconclusive: -15.8% [inhibitor],
CCc1nnc(NC(=O)CSc2nnc(-c3ccoc3C)n2-c2cccc(C)c2)s1,,"inconclusive [inhibitor, partial curve]"
Cc1ccc(C)c(NC(=O)CSc2nnc([C@@H]3CCCN3C(=O)OC(C)(C)C)o2)c1,,"inconclusive [inhibitor, single point]"
COc1ccc(CCN(C)C(=O)C2CCN(Cc3ccccc3)CC2)cc1OC,inconclusive: 18.7% [activator],
O=C(Nc1ccc(NC(=O)c2cccs2)cn1)c1ccccc1,,inactive
CC(=O)Nc1ccc(C(=O)NCCCOC(C)C)cc1,,inactive
CCC(=O)Nc1c(S(=O)(=O)c2ccccc2)c2nc3ccccc3nc2n1C(C)c1ccccc1 (stereo not drawn),,"inconclusive [activator, single point]"
O=C(CN1C(=O)NC2(CCCCCCC2)C1=O)NCc1cccs1,,inactive
Cn1cccc1/C=C1/SC(=S)N(CC(=O)O)C1=O,inconclusive: -15.8% [inhibitor],
